# Test results reported in article PMC7819943, “Rice protein-binding microarrays: a tool to detect cis-acting elements near promoter regions in rice”.
# The list shows a part of the results.
# Molecular target: T1, OsWOX13 (Oryza sativa, UniProt Q5QMM3 1-267)
# T1 sequence: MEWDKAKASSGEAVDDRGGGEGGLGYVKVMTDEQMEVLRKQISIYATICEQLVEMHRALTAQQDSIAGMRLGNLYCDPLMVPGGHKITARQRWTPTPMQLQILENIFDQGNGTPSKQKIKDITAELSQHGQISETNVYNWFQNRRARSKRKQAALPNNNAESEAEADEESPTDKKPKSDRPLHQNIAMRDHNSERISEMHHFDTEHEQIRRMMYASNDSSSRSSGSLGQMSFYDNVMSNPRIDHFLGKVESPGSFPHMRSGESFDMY
# Test: protein-binding microarray (RPBM); PBS, 2% BSA, 51.3 ng/ul salmon testes DNA, 50 uM zinc acetate, 200 nM TF, 25 C, 1 h; high values mean tight binding
# Details: protein: recombinant; tags: N-terminal polyhistidine and DsRed monomer fusion (pET32a); label: CyDye5-dUTP incorporated in the synthesized complementary strand; 3' TTTTT single-stranded linker to array surface; dsDNA, one strand shown
# How it was run: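 The binding signal is fluorescence intensity per array feature (arbitrary units). Readings came from an Axon 4000B scanner after a washed, 2% BSA-blocked, double-stranded custom Agilent array had been incubated for 1 h at 25 °C with 200 nM protein and 50 µM zinc acetate. The protein was a Ni–NTA-purified transcription factor fused N-terminally to polyhistidine and DsRed, expressed in E. coli BL21-CodonPlus.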
row,Sequence,binding signal
1,ACTGATTATATAATTGTTCCAATAGAACATATATTCTATTCGGAGTCACCTAGTGCAG,26000 fluorescence intensity (a.u.)
2,TATGAATAATTGAAAGAGAGTGACTGGAGATGGCAAGAGTCGGAGTCACCTAGTGCAG,28200 fluorescence intensity (a.u.)
3,GATAATAGAATAGCTTAATAAAACAATGTACTTGTTGCAGCGGAGTCACCTAGTGCAG,7950 fluorescence intensity (a.u.)
4,TGACCATGATTGACATTTCTATTTGCAAGAGCTCTCACTTCGGAGTCACCTAGTGCAG,34700 fluorescence intensity (a.u.)
5,CATACAAGTCAATCAGCATCCATTTTGGCTGGTAGGACCTCGGAGTCACCTAGTGCAG,6900 fluorescence intensity (a.u.)
6,TGTAGATTGAAAATATACGATTTTAGGGCCTAAATTTTATCGGAGTCACCTAGTGCAG,13300 fluorescence intensity (a.u.)
7,TAAAATTCAAATTTTATATAGTTCAATCAAACTCGGATGGCGGAGTCACCTAGTGCAG,6650 fluorescence intensity (a.u.)
8,GAATGTTATGTAATTGGGTCGGATTGGTATGCATATTGAGCGGAGTCACCTAGTGCAG,15000 fluorescence intensity (a.u.)
9,ATGTTTTACTAATTATGATCTTATTATTGTAGCAACTATACGGAGTCACCTAGTGCAG,3890 fluorescence intensity (a.u.)
10,TATAACTAAAATTACATTTGTAAATTTAGTTAATATGACACGGAGTCACCTAGTGCAG,19400 fluorescence intensity (a.u.)
11,ATCCAATCTAATAGTTTATCAATAGTTATATAATACACCACGGAGTCACCTAGTGCAG,4780 fluorescence intensity (a.u.)
12,ACGAATTGAACAATCAATTCACCCGGAGAGGTACGTCTGCCGGAGTCACCTAGTGCAG,27000 fluorescence intensity (a.u.)
13,TACTGAGATGGATAGATTAGAGAAACAACTCTGTTGTCTGCGGAGTCACCTAGTGCAG,4360 fluorescence intensity (a.u.)
14,ACAGTAATCAGTCAGATGGAAAAGGTATACCTGAGGTTCCCGGAGTCACCTAGTGCAG,4150 fluorescence intensity (a.u.)
15,GTTAGAATTGAATGAAAGAGGGAAGATGAACAGTTAGGATCGGAGTCACCTAGTGCAG,4820 fluorescence intensity (a.u.)
16,AGATAAATTAGGTGCTATTAAAGTGAAGCGTGAACTTGCACGGAGTCACCTAGTGCAG,10800 fluorescence intensity (a.u.)
17,ATTGATTTGTGCAGTCACCCGGCCCACAGGCCACAGCTACCGGAGTCACCTAGTGCAG,22900 fluorescence intensity (a.u.)
18,AGAGACTGGTGATGGACTTTACTCTTTTCTTCTCCAACACCGGAGTCACCTAGTGCAG,6590 fluorescence intensity (a.u.)
19,GTGAAATTGCCAACTTCATGTTAAATCTTGCATATGGATTCGGAGTCACCTAGTGCAG,3600 fluorescence intensity (a.u.)
20,GTCGATTGAACAAACAGATATTGTCCGCTCTCTTTACACACGGAGTCACCTAGTGCAG,19700 fluorescence intensity (a.u.)
21,AGTTAAATTAAGTTAGTAATTAACACAAGCCCTTAATGTGCGGAGTCACCTAGTGCAG,22300 fluorescence intensity (a.u.)

row,Sequence,binding signal
1,GTAGAGTGATGATTGGAAATGTGTTTACTTTGAATTTTGACGGAGTCACCTAGTGCAG,26600 fluorescence intensity (a.u.)
2,ACCATGATCGAAATATAATTAGCTTACTATGATACCGATGCGGAGTCACCTAGTGCAG,16000 fluorescence intensity (a.u.)
3,CATGTAATTTTAAACCTTTAGATCTATTACAAGATTTGTTCGGAGTCACCTAGTGCAG,6690 fluorescence intensity (a.u.)
4,AGAACTATAGATCACCAATCAGTGACAAACAAAATTTCCCCGGAGTCACCTAGTGCAG,10300 fluorescence intensity (a.u.)
5,CCATAAATTGGAGGACATAATGTGAACGTTTTCCTCCAAACGGAGTCACCTAGTGCAG,36700 fluorescence intensity (a.u.)
6,GAATGATTTAGAATGAATTATGTTGCTGTGAATGATTTAGCGGAGTCACCTAGTGCAG,20000 fluorescence intensity (a.u.)
7,CGTCAAATCATTCCAATTTCAATCAAACTTCTAATTTTAGCGGAGTCACCTAGTGCAG,10600 fluorescence intensity (a.u.)
8,TAAATATACTTATAATTTGACAAATCACTAAGTCATAATTCGGAGTCACCTAGTGCAG,7660 fluorescence intensity (a.u.)
9,TTCTTCCTTATTATCAATTTAAATTTGAATTTAGATGAAACGGAGTCACCTAGTGCAG,11400 fluorescence intensity (a.u.)
10,GGCATGGTGATTTGGTACTAATGCTAAATCTTGTTTGTTGCGGAGTCACCTAGTGCAG,4910 fluorescence intensity (a.u.)
11,GCGTCATAACTCATAAATTATGAAATGTGAAATGGTGGAACGGAGTCACCTAGTGCAG,6890 fluorescence intensity (a.u.)
12,GTTAAAATGTTAATTAATCGTGTCAATCGAGTAAACAACCCGGAGTCACCTAGTGCAG,19900 fluorescence intensity (a.u.)
13,CGATGATTGTGCTAGTATACATGTGTTGACGATGTATTGTCGGAGTCACCTAGTGCAG,35500 fluorescence intensity (a.u.)
14,TTCTTGATTCCTTGATTATTGCCTTATTTCAGTGTGTCGCCGGAGTCACCTAGTGCAG,31200 fluorescence intensity (a.u.)
15,GCAGCTGGGACTCCGAGAGTAGCAGCCTAGCAGGAACACGCGGAGTCACCTAGTGCAG,19300 fluorescence intensity (a.u.)
16,CGTATTAATTAAGGCCTGTTGGGTTTAGAGGAATTTCGCGCGGAGTCACCTAGTGCAG,15100 fluorescence intensity (a.u.)
17,CTGATTAGCATGCAGGATAGGAACTGATCTGTACTTGTCGCGGAGTCACCTAGTGCAG,22300 fluorescence intensity (a.u.)
18,CCGAAATTTCACAAATTTCGTTTCTTTCAGCCACCACCGTCGGAGTCACCTAGTGCAG,14300 fluorescence intensity (a.u.)
19,CCCTGATTTGGTTACTTCACTTCAATTATGGTAGTAGGGCCGGAGTCACCTAGTGCAG,36200 fluorescence intensity (a.u.)
20,GCACCGGATTGGCTCCCTCTCCCGCATCACGCTACTGCCACGGAGTCACCTAGTGCAG,3220 fluorescence intensity (a.u.)
21,GAGTTAGCCATGGCCTGTCAATTACTGGAACTCTGTTGTACGGAGTCACCTAGTGCAG,4480 fluorescence intensity (a.u.)
